Measured values reported in EP0584290B1, “ENDOTHELIN ANTAGONISTS” (WARNER-LAMBERT COMPANY, priority 1991, dated 1992).
Part of at least one peptide drawing is inferred or uncertain, most often the ends. Square brackets hold non-standard residues; d marks the D form. Peptide text beside a SMILES is read from it. * marks the point of attachment. dDip = N[C@@H](C(=O)O)C(c1ccccc1)c1ccccc1; d1Nal = N[C@H](Cc1cccc2ccccc12)C(=O)O; Fmoc = O=C(OCC1c2ccccc2-c2ccccc21)*; Orn = NCCC[C@H](N)C(=O)O

Tests used:
[1] = target: endothelin receptor, rat heart ventricle; experiment: [125I]-ET-1 binding assay in rat heart ventricle; conditions: for IC50: [125I]-ET-1, rat heart ventricle (10 µg), 37°C, 2 hours
Protocol: The compounds of Formula I are valuable antagonists of endothelin. […] Thus, the compounds of Formula I were tested for their ability to inhibit [^125I]-ET-1([^125I]-Endothelin-1) binding in a receptor assay. The binding of the compounds of Formula I is determined by incubation (37°C, 2 hours) of a compound of Formula I with [^125I]-ET-1 and the tissue (rat heart ventricle (10 µg)) in 50 mM Tris(hydroxymethyl)aminomethane hydrochloride (Tris-HCl) (pH 7.4), 5 mM ethylenediamine tetraacetic acid (EDTA), 2 mM ethylene glycol bis(β-aminoethyl ether)N,N,N',N'-tetraacetic acid (EGTA), 100 µM phenylmethylsulfonyl fluoride (PMSF), and 100 µM bacitracin containing protease inhibitors (total volume of 0.5 mL). IC50 values are calculated by weighing nonlinear regression curve-fitting to the mass-action (Langmuir) equation. The functional activity of compounds of Formula I is determined in Rat-1 cells by measuring intracellular levels of second messengers. Thus, cells were prelabeled with [^3H]-inositol and endothelin-stimulated accumulation of total [^3H]-inositol phosphates in the presence of Li^+ is monitored using anion exchange chromatography as described by Muldoon, L. L., et al, Journal of Biological Chemistry, Volume 264, pages 8529-8536 (1989) and Dudley, D. T., et al, Molecular Pharmacology, Volume 38, pages 370-377 (1990). Antagonist activity is assessed as the ability of added compounds to reduce endothelin-stimulated inositol phosphate accumulation. Antagonist activity was also measured by the ability of added compounds to reduce endothelin-stimulated arachidonic acid release in cultured vascular smooth muscle cells as (AAR) described in Reynolds, E., Mok, K., Faseb J., 1991, 5, A1066. The data in the table show the endothelin antagonist activity of representative compounds of Formula I. TABLE 1

[2] = test system: cultured vascular smooth muscle cells; experiment: Endothelin-stimulated arachidonic acid release (AAR) in cultured vascular smooth muscle cells; assay type: cell-based

With `CC[C@H](C)[C@H](NC(=O)[C@H](CC(=O)O)NC(=O)[C@H](CC(C)C)NC(=O)[C@H](N)Cc1cccc2ccccc12)C(=O)N[C@H](C(=O)N[C@@H](Cc1c[nH]c2ccccc12)C(=O)O)[C@@H](C)CC` [Example 4, D-1-Nal-Leu-Asp-Ile-Ile-Trp] (H-[d1Nal]LDIIW-OH) the IC50 [1] was 8980 nM.

`CC[C@H](C)[C@H](NC(=O)[C@H](CC(=O)O)NC(=O)[C@H](CC(C)C)NC(=O)[C@@H](Cc1cccc2ccccc12)NC(C)=O)C(=O)N[C@H](C(=O)N[C@@H](Cc1c[nH]c2ccccc12)C(=O)O)[C@@H](C)CC` [Example 5, Ac-D-1-Nal-Leu-Asp-Ile-Ile-Trp] (Ac-[d1Nal]LDIIW-OH) gave an IC50 [1] of 1630 nM and an IC50 [2] of 1900 nM.

In the case of `CC[C@H](C)[C@H](NC(=O)[C@H](CC(=O)O)NC(=O)[C@H](CCC(=O)O)NC(=O)[C@@H](Cc1ccccc1)NC(C)=O)C(=O)N[C@H](C(=O)N[C@@H](Cc1c[nH]c2ccccc12)C(=O)O)[C@@H](C)CC` [Example 9, Ac-D-Phe-Glu-Asp-Ile-Ile-Trp] (Ac-[dF]EDIIW-OH), the IC50 [1] is reported as 740 nM and the IC50 [2] is reported as 600 nM.

For `CC[C@H](C)[C@H](NC(=O)[C@H](CC(=O)O)NC(=O)[C@H](CC(C)C)NC(=O)[C@@H](Cc1ccc(O)cc1)NC(C)=O)C(=O)N[C@H](C(=O)N[C@@H](Cc1c[nH]c2ccccc12)C(=O)O)[C@@H](C)CC` [Example 10, Ac-D-Tyr-Leu-Asp-Ile-Ile-Trp] (Ac-[dY]LDIIW-OH), the IC50 [1] was 700 nM and the IC50 [2] was 250 nM.

For `CC[C@H](C)[C@H](NC(=O)[C@H](CC(=O)O)NC(=O)[C@H](CC(C)C)NC(=O)[C@@H](Cc1ccccc1)NC(=O)OCC1c2ccccc2-c2ccccc21)C(=O)N[C@H](C(=O)N[C@@H](Cc1c[nH]c2ccccc12)C(=O)O)[C@@H](C)CC` [Example 12, Fmoc-D-Phe-Leu-Asp-Ile-Ile-Trp] (Fmoc-[dF]LDIIW-OH), the IC50 [1] was 430 nM.

`CC[C@H](C)[C@H](NC(=O)[C@H](Cc1ccccc1)NC(=O)[C@H](CC(C)C)NC(=O)[C@H](NC(C)=O)C(c1ccccc1)c1ccccc1)C(=O)N[C@H](C(=O)N[C@@H](Cc1c[nH]c2ccccc12)C(=O)O)[C@@H](C)CC` [Example 16, Ac-D-Dip-Leu-Phe-Ile-Ile-Trp] (Ac-[dDip]LFIIW-OH) was tested, and the IC50 [1] was 47 nM and the IC50 [2] was 1800 nM.

For `CC[C@H](C)[C@H](NC(=O)[C@H](CC(=O)O)NC(=O)[C@H](CC(C)C)NC(=O)[C@H](NC(C)=O)C(c1ccccc1)c1ccccc1)C(=O)N[C@@H](CCC(=O)O)C(=O)N[C@@H](Cc1c[nH]c2ccccc12)C(=O)O` [Example 18, Ac-D-Dip-Leu-Asp-Ile-Glu-Trp] (Ac-[dDip]LDIEW-OH), the “Binding Assay in Rat Heart Ventricle % Inhibition” value ([1]; @ 10 µM) was 37.0% @ 10 µM.

`CC[C@H](C)[C@H](NC(=O)[C@H](CCC(=O)O)NC(=O)[C@H](CC(=O)O)NC(=O)[C@H](CC(C)C)NC(=O)[C@H](NC(C)=O)C(c1ccccc1)c1ccccc1)C(=O)N[C@@H](Cc1c[nH]c2ccccc12)C(=O)O` [Example 19, Ac-D-Dip-Leu-Asp-Glu-Ile-Trp] (Ac-[dDip]LDEIW-OH) showed an IC50 [1] of 15 nM.

With `CC[C@H](C)[C@H](NC(=O)[C@H](CC(=O)O)NC(=O)[C@H](CCCN)NC(=O)[C@H](NC(C)=O)C(c1ccccc1)c1ccccc1)C(=O)N[C@H](C(=O)N[C@@H](Cc1c[nH]c2ccccc12)C(=O)O)[C@@H](C)CC` [Example 21, Ac-D-Dip-Orn-Asp-Ile-Ile-Trp] (Ac-[dDip][Orn]DIIW-OH) the “Binding Assay in Rat Heart Ventricle % Inhibition” value ([1]; @ 0.05 µM) was 79% @ 0.05 µM and the IC50 [2] was 20 nM.
